Laboratory results as given in the supplement of paper PMC12217912.
Some of the results follow. Sequences were assembled here from the parent chain. Inactive controls read about 0.05.

B1: TEV protease; numbered along this chain (parent)
chain: MGESLFKGPRDYNPISSSICHLTNESDGHTTSLYGIGFGPFIITNKHLFRRNNGTLVVQSLHGVFKVKDTTTLQQHLVDGRDMIIIRMPKDFPPFPQKLKFREPQREERICLVTTNFQTKSMSSMVSDTSCTFPSGDGIFWKHWIQTKDGQCGSPLVSTRDGFIVGIHSASNFTNTNNYFTSVPKNFMELLTNQEAQQWVSGWRLNADSVLWGGHKVFMVKPEEPFQPVKEATQL

Variants of: B1
Experiment: raw area under fraction-flipped curve 0-4 h after induction (AUC4h, not background-subtracted), DNA-recorder readout of cleavage of the substrate (dimensionless); higher = more cleavage of the substrate by the protease variant
Conditions: temperature: 34 °C; time window: 0-4 h after rhamnose induction
Experimental: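 In vivo DNA recorder in E. coli TOP10(DE3) ΔrhaA at 34 °C. Each TEVp single-site mutant (parent TEVp 0) is paired with a single-site variant of the 7-mer TEVs (canonical ENLYFQ|S). The substrate sits between flexible linkers in a Bxb1-sfGFP-TEVs-SsrA fusion, so cleavage stabilises Bxb1 and speeds flipping of a recombination array, read by NGS. The value is the raw area under the fraction-flipped curve over 0-4 h after rhamnose induction (AUC4h), with ≥20 reads per time point. It is not background-subtracted; inactive controls average about 0.047.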
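Also: Bxb1 expression induced with 0.2% (w/v) L-rhamnose at OD600 near 0.5, cultures sampled hourly, flipped fraction per protease–substrate barcode pair counted by paired-end Illumina sequencing.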

Row | Variant | area with substrate CNLYFQS | area with substrate DNLYFQS | area with substrate FNLYFQS | area with substrate GNLYFQS | area with substrate HNLYFQS | area with substrate INLYFQS | area with substrate KNLYFQS | area with substrate LNLYFQS | area with substrate MNLYFQS | area with substrate PNLYFQS | area with substrate RNLYFQS | area with substrate SNLYFQS | area with substrate TNLYFQS | area with substrate WNLYFQS | area with substrate YNLYFQS | area with substrate QNLYFQS | area with substrate VNLYFQS
1 | MGESLFKGPRDYNPISSSICHLTNESDGHTTSLYGIGFGPFIITNKHLFRRNNGTLVVQSLHGVFKVKDTTTLQQHLVDGRDMIIIRMPKDFPPFPQKLKFREPQREERICLVTTNFQTKSMSSMVSDTSCTFPSGDGIFWKHWIQTKDGQCGSPLVSTRDGFIVDIHSASNFTNTNNYFTSVPKNFMELLTNQEAQQWVSGWRLNADSVLWGGHKVFMVKPEEPFQPVKEATQL [G166D] | 0.0555 | 0.0434 | 0.0518 | 0.0422 | 0.0552 | 0.0525 | 0.0681 | 0.0481 | 0.0462 | 0.0526 | 0.0546 | 0.0584 | 0.0611 | 0.0353 | 0.0489 |  | 
2 | MGESLFKGPRDYNPISSSICHLTNESDGHTTSLYGIGFGPFIITNKHLFRRNNGTLVVQSLHGVFKVKDTTTLQQHLVDGRDMIIIRMPKDFPPFPQKLKFREPQREERICLVTTNFQTKSMSSMVSDTSCTFPSGDGIFWKHWIQTKDGQCGSPLVSTRDGFIVMIHSASNFTNTNNYFTSVPKNFMELLTNQEAQQWVSGWRLNADSVLWGGHKVFMVKPEEPFQPVKEATQL [G166M] | 0.0462 | 0.0433 | 0.0331 | 0.0428 | 0.0584 | 0.0416 |  | 0.0454 | 0.0367 | 0.0473 |  |  | 0.0536 | 0.0585 | 0.0351 | 0.019 | 
3 | MGESLFKGPRDYNPISSSICHLTNESDGHTTSLYGIGFGPFIITNKHLFRRNNGTLVVQSLHGVFKVKDTTTLQQHLVDGRDMIIIRMPKDFPPFPQKLKFREPQREERICLVTTNFQTKSMSSMVSDTSCTFPSGDGIFWKHWIQTKDGQCGSPLVSTRDGFIVGAHSASNFTNTNNYFTSVPKNFMELLTNQEAQQWVSGWRLNADSVLWGGHKVFMVKPEEPFQPVKEATQL [I167A] | 0.0544 | 0.079 |  |  | 0.0485 | 0.0487 |  |  | 0.0479 | 0.0481 |  |  | 0.0448 | 0.0511 |  |  | 
4 | MGESLFKGPRDYNPISSSICHLTNESDGHTTSLYGIGFGPFIITNKHLFRRNNGTLVVQSLHGVFKVKDTTTLQQHLVDGRDMIIIRMPKDFPPFPQKLKFREPQREERICLVTTNFQTKSMSSMVSDTSCTFPSGDGIFWKHWIQTKDGQCGSPLVSTRDGFIVGIHMASNFTNTNNYFTSVPKNFMELLTNQEAQQWVSGWRLNADSVLWGGHKVFMVKPEEPFQPVKEATQL [S169M] | 0.0558 | 0.0593 | 0.0537 | 0.0624 | 0.0674 | 0.0624 | 0.0547 | 0.0654 | 0.0614 | 0.0613 | 0.0658 |  | 0.069 | 0.0318 | 0.0623 |  | 0.0641
5 | MGESLFKGPRDYNPISSSICHLTNESDGHTTSLYGIGFGPFIITNKHLFRRNNGTLVVQSLHGVFKVKDTTTLQQHLVDGRDMIIIRMPKDFPPFPQKLKFREPQREERICLVTTNFQTKSMSSMVSDTSCTFPSGDGIFWKHWIQTKDGQCGSPLVSTRDGFIVGIHWASNFTNTNNYFTSVPKNFMELLTNQEAQQWVSGWRLNADSVLWGGHKVFMVKPEEPFQPVKEATQL [S169W] | 0.0473 | 0.0554 |  |  | 0.0542 |  |  |  |  |  |  |  |  | 0.0786 |  |  | 
6 | MGESLFKGPRDYNPISSSICHLTNESDGHTTSLYGIGFGPFIITNKHLFRRNNGTLVVQSLHGVFKVKDTTTLQQHLVDGRDMIIIRMPKDFPPFPQKLKFREPQREERICLVTTNFQTKSMSSMVSDTSCTFPSGDGIFWKHWIQTKDGQCGSPLVSTRDGFIVGIHSAFNFTNTNNYFTSVPKNFMELLTNQEAQQWVSGWRLNADSVLWGGHKVFMVKPEEPFQPVKEATQL [S171F] | 0.0587 | 0.0631 |  | 0.0563 | 0.0583 | 0.061 | 0.0499 |  | 0.0691 | 0.0754 |  | 0.0664 | 0.0504 |  | 0.0601 |  | 0.0493
7 | MGESLFKGPRDYNPISSSICHLTNESDGHTTSLYGIGFGPFIITNKHLFRRNNGTLVVQSLHGVFKVKDTTTLQQHLVDGRDMIIIRMPKDFPPFPQKLKFREPQREERICLVTTNFQTKSMSSMVSDTSCTFPSGDGIFWKHWIQTKDGQCGSPLVSTRDGFIVGIHSALNFTNTNNYFTSVPKNFMELLTNQEAQQWVSGWRLNADSVLWGGHKVFMVKPEEPFQPVKEATQL [S171L] | 0.0502 | 0.0647 |  | 0.0474 | 0.0549 | 0.0521 | 0.0906 | 0.0553 | 0.0593 |  |  | 0.0671 | 0.0595 | 0.0554 | 0.0655 |  | 
8 | MGESLFKGPRDYNPISSSICHLTNESDGHTTSLYGIGFGPFIITNKHLFRRNNGTLVVQSLHGVFKVKDTTTLQQHLVDGRDMIIIRMPKDFPPFPQKLKFREPQREERICLVTTNFQTKSMSSMVSDTSCTFPSGDGIFWKHWIQTKDGQCGSPLVSTRDGFIVGIHSAMNFTNTNNYFTSVPKNFMELLTNQEAQQWVSGWRLNADSVLWGGHKVFMVKPEEPFQPVKEATQL [S171M] | 0.0675 | 0.058 |  |  | 0.042 |  | 0.0596 | 0.0628 | 0.0664 | 0.0662 | 0.0528 | 0.0638 | 0.0622 | 0.0326 |  |  | 0.0344
9 | MGESLFKGPRDYNPISSSICHLTNESDGHTTSLYGIGFGPFIITNKHLFRRNNGTLVVQSLHGVFKVKDTTTLQQHLVDGRDMIIIRMPKDFPPFPQKLKFREPQREERICLVTTNFQTKSMSSMVSDTSCTFPSGDGIFWKHWIQTKDGQCGSPLVSTRDGFIVGIHSASNFTNKNNYFTSVPKNFMELLTNQEAQQWVSGWRLNADSVLWGGHKVFMVKPEEPFQPVKEATQL [T176K] | 0.0831 | 0.068 |  |  | 0.0603 | 0.0612 | 0.0694 | 0.0653 | 0.0487 | 0.0391 |  | 0.0734 |  |  |  | 0.0486 | 0.0598
10 | MGESLFKGPRDYNPISSSICHLTNESDGHTTSLYGIGFGPFIITNKHLFRRNNGTLVVQSLHGVFKVKDTTTLQQHLVDGRDMIIIRMPKDFPPFPQKLKFREPQREERICLVTTNFQTKSMSSMVSDTSCTFPSGDGIFWKHWIQTKDGQCGSPLVSTRDGFIVGIHSASNFTNTLNYFTSVPKNFMELLTNQEAQQWVSGWRLNADSVLWGGHKVFMVKPEEPFQPVKEATQL [N177L] | 0.124 | 0.137 |  | 0.0815 | 0.0784 |  |  | 0.0839 | 0.0779 |  |  | 0.0896 | 0.0928 | 0.0702 |  |  | 0.0889
